Results: PubChem BioAssay AID360 (National Center for Advancing Translational Sciences (NCATS), 2006)
Screen size: about 48,000 compounds; about 550 (1.1%) were called active. Roughly 4% stayed inconclusive and do not appear here. Rule as the data show it: active = potency below about 15 µM; inconclusive = mostly about 16 µM to 33 µM; inactive = weaker than that. Some of the results follow.

Biological target: Lysosomal acid glucosylceramidase (Homo sapiens) (UniProt P04062)
Assay: Glucocerebrosidase;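 also: the screen sought inhibitors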
Settings: purified enzyme, resorufin glucoside fluorescence (screen aimed at inhibitors), 20 min
Method in brief: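 Compounds titrated against 0.2 nM normal enzyme, 30 uM resorufin beta-D-glucopyranoside substrate, citrate/phosphate buffer with taurocholate and tween-20, pH 5.9. Reaction ran 20 min at room temperature; fluorescence (Ex 548/Em 600) gave AC50.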
Potency is read from the fitted curve at half-maximal effect.

Chain of UniProt P04062 (P04062 whole entry, looked up): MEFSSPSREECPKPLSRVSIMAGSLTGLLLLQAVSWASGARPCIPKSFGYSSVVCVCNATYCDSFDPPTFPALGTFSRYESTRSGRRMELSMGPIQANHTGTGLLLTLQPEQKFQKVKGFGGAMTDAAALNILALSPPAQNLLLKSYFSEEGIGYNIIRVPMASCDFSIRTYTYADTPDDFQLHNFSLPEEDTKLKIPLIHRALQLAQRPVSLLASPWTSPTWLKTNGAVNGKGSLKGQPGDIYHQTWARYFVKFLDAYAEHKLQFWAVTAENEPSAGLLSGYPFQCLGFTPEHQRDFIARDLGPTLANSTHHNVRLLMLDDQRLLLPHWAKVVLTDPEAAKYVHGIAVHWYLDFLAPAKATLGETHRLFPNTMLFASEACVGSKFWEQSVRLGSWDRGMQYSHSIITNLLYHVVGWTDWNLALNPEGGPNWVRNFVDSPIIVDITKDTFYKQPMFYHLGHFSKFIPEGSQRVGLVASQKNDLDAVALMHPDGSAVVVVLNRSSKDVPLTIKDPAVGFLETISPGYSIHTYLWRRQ

Potency, inactive:
O=c1[nH]c(CS(=O)(=O)c2ccccc2)nc2ccccc12 > 76.9 µM
Cc1cccc(N2CCN(C(=O)c3ccc(N4CCCC4=O)cc3)CC2)c1C > 76.9 µM
Cc1c(C(=O)O)oc2ccc(S(=O)(=O)N3CCC(C)CC3)cc12 > 76.9 µM
CC(C)C(NC(=O)c1ccc(S(=O)(=O)N2CCOCC2)cc1)c1nc2ccccc2[nH]1 (stereo not drawn) > 76.9 µM
CCOCCCNc1ncnc2c1[nH]c1ccccc12 > 76.9 µM
CCOC(=O)c1ccc(COC(=O)c2ccc(-c3nnc(-c4ccccc4)o3)cc2)o1 > 76.9 µM
Cn1nccc1C(=O)Nn1cnnc1 > 76.9 µM
CC1CCN(S(=O)(=O)c2cc(Br)cc(C(=O)NC3=NCCS3)c2)CC1 > 76.9 µM
COc1cccc(NC(=O)C2CCN(S(C)(=O)=O)CC2)c1 > 76.9 µM
Cc1cccc(OCCSc2nnc(-c3ccoc3C)n2C)c1 > 76.9 µM
COc1ccc(Cl)c(NC(=O)NCCN2CCN(c3ccccc3)CC2)c1 > 76.9 µM
COCc1nnc(SCC(=O)NC(C)c2ccccc2)n1-c1ccccc1 (stereo not drawn) > 76.9 µM
COCCCNC(CC(=O)Nc1ccc(OC)cc1OC)C(=O)O (stereo not drawn) > 76.9 µM
O=C(CSc1nnc(-c2ccc3c(c2)OCCO3)o1)NC1CCCCC1 > 76.9 µM
CCOC(=O)C1CC=C(Cl)CC1C(=O)Nc1nccs1 (stereo not drawn) > 76.9 µM
N#CCCSc1ccccc1NC(=O)c1ccc(S(=O)(=O)N2CCCC2)cc1 > 76.9 µM
Cc1cc(NC(=O)CN2CCN(c3ncccn3)CC2)no1 > 76.9 µM
Cn1c(C(C#N)C(=O)c2ccco2)nc2ccccc21 (stereo not drawn) > 76.9 µM
Clc1ccc(OCc2nnc(SCc3nnc(-c4ccccc4)o3)o2)c(Cl)c1 > 76.9 µM
COc1cc2[nH]c(=S)n(C3CCCC3)c(=O)c2cc1OC > 76.9 µM
Cc1occc1C(=O)Nc1cccc2ccccc12 > 76.9 µM
COc1ccccc1C(=O)N1CCN(CCc2ccccc2)CC1 > 76.9 µM
CCOc1ccc(N2C(=O)CC(N(O)c3ccccc3)C2=O)cc1 (stereo not drawn) > 76.9 µM
COc1ccc(Cn2c3nc4ccccc4nc3c3c(=O)n(Cc4ccco4)c(C)nc32)cc1 > 76.9 µM
O=C(O)C1CSC2(CCN(Cc3ccccc3)CC2)N1 (stereo not drawn) > 76.9 µM
CCC(=O)c1ccc(N2CCN(C(=O)c3ccc(Br)cc3)CC2)c(F)c1 > 76.9 µM
COc1cc(C2=NOC(C(=O)N3CCCCCC3)C2)cc(OC)c1OC (stereo not drawn) > 76.9 µM
Clc1ncn(C23CC4CC(CC(C4)C2)C3)n1 > 76.9 µM
CCSc1nnc(NC(=O)CSc2nccn2-c2cc(C)cc(C)c2)s1 > 76.9 µM
O=C1c2oc3ccccc3c(=O)c2C(c2cccs2)N1CCCN1CCOCC1 (stereo not drawn) > 76.9 µM
CCCCNC(=O)Nc1cnn(CC)c1C(N)=O > 76.9 µM
O=C(O)CCC(NC(=O)OCc1ccccc1)C(=O)O (stereo not drawn) > 76.9 µM
COc1ccccc1Nc1nc2c(s1)CCC2 > 76.9 µM
CCS(=O)(=O)N1CCCC(C(=O)NC2CCCCC2C)C1 (stereo not drawn) > 76.9 µM
CCc1nc(C)ccc1OCC(=O)O > 76.9 µM
Cc1sc2ncn(CCn3cnc4sc(C)c(C)c4c3=O)c(=O)c2c1C > 76.9 µM
CC(Oc1ccccc1Br)C(=O)N1CCc2ccccc21 (stereo not drawn) > 76.9 µM
O=C(COC(=O)c1cccnc1)Nc1cccc(Cl)c1 > 76.9 µM
CCN(CC)S(=O)(=O)c1ccc(F)cc1 > 76.9 µM
COC(=O)c1cc(NC(=O)c2c(Cl)nc3sccn23)cc(C(=O)OC)c1 > 76.9 µM
O=C(O)C1CC(=O)N(Cc2cccnc2)C1 (stereo not drawn) > 76.9 µM
CCC(c1nnnn1CCOC)N1CCN(C(=O)c2ccco2)CC1 (stereo not drawn) > 76.9 µM
COc1ccc(CCn2nnnc2C(c2ccccc2)N2CCN(C)CC2)cc1OC (stereo not drawn) > 76.9 µM
CN(C)c1ccc(P(=O)(OCc2ccccc2)C(O)c2ccncc2)cc1 (stereo not drawn) > 76.9 µM
O=C(Oc1ccc(-n2cnnn2)cc1)c1ccco1 > 76.9 µM
O=C(Nc1ccc(N2CCOCC2)cc1)C1CCN(S(=O)(=O)Cc2ccccc2)CC1 > 76.9 µM
Cc1ccccc1CN1CCN(CC(=O)NCc2ccc3c(c2)OCO3)C1=O > 76.9 µM
CCN(CC)C(=O)CSc1nnc(CCCCCNC(=O)OC(C)(C)C)o1 > 76.9 µM
CCOCCOC(=O)C1=C(C)N(C)C(=O)NC1c1cc(Cl)c(O)c(OC)c1 (stereo not drawn) > 76.9 µM
Cc1cc(C)n(-c2nc3ccccc3nc2N2CCN(S(=O)(=O)c3ccc(F)c(C)c3)CC2)n1 > 76.9 µM
Cc1cc(=O)oc2cc(OCC(=O)N3CCCC(C)C3)ccc12 (stereo not drawn) > 76.9 µM
O=C1N(CC(=O)N2CCc3ccccc32)CCN1Cc1ccc(Cl)cc1 > 76.9 µM
O=C(NCc1ccccc1)c1cc(=O)nc2sc(-c3ccccc3)nn12 > 76.9 µM
Cc1nc(=O)cc(-c2ccccc2)n1-c1ccccc1 > 76.9 µM
Cc1cc(C)nc(SCc2nnc(SCC(=O)Nc3ccc(Cl)c(C(F)(F)F)c3)o2)n1 > 76.9 µM
Brc1cccc(/C=N\n2cnnc2)c1 > 76.9 µM
Cc1ccc(-c2cc3nc(C)cc(NCc4ccco4)n3n2)cc1 > 76.9 µM
OCC#CCSc1nnc(-c2ccncc2)o1 > 76.9 µM
COc1ccc2cnn(-c3ccccc3)c(=O)c2c1OC > 76.9 µM
C=CCN1C(=O)C(CC(=O)O)SC1=Nc1c(C)n(C)n(-c2ccccc2)c1=O (stereo not drawn) > 76.9 µM
Nc1nnc(Cc2ccc(Cl)cc2)s1 > 76.9 µM
O=c1oc2ccccc2cc1-c1nnc(-c2cccc(Br)c2)o1 > 76.9 µM
O=S(=O)(NCc1ccccc1)c1cnc[nH]1 > 76.9 µM
Oc1ccc(C(=S)N2CCCCC2)cc1Cl > 76.9 µM
Cc1ccsc1C(C(=O)NC1CCCCC1)N(C(=O)Cc1cccs1)C1CC1 (stereo not drawn) > 76.9 µM
O=C(CCCNS(=O)(=O)c1cccc2nsnc12)NC1CCCCC1 > 76.9 µM
O=C(CSc1nnc(-c2cccnc2)n1CCc1ccccc1)N1CCCCC1 > 76.9 µM
COc1ccc(Nc2cc(C(=O)NCCCN3CCN(C)CC3)c3ccccc3n2)cc1 > 76.9 µM
Cc1cn(C2OC(COC(=O)c3ccccc3)C(O)C2O)c(=O)[nH]c1=O (stereo not drawn) > 76.9 µM
CC12CC3CC(C)(C1)CC(C(=O)Nc1nn[nH]n1)(C3)C2 > 76.9 µM
O=C(Cn1c(=O)oc2ccccc21)Nc1ccc(S(=O)(=O)N2CCCCC2)cc1 > 76.9 µM
Nc1c(C(=O)Nc2ccccc2)sc2nc(-c3ccco3)ccc12 > 76.9 µM
O=C(NC1CCCCC1)c1ccc(N2CCCC2=O)cc1 > 76.9 µM
CC1(c2cccs2)CC(c2cccs2)=C(C#N)C(=O)N1 (stereo not drawn) > 76.9 µM
C#CC(C)(CC)NC(=O)Cn1nnc(-c2ccc(S(C)(=O)=O)cc2)n1 (stereo not drawn) > 76.9 µM
Cc1ccc(C(=O)Nc2ccc3c(c2)OCO3)cc1S(=O)(=O)N1CCCCC1 > 76.9 µM
CCCCNC(=O)COC(=O)c1cc2c(C)nn(-c3ccccc3)c2s1 > 76.9 µM
CCOC(=O)C1CCN(C(=O)c2ccc(Cl)c(S(=O)(=O)N3CCOCC3)c2)CC1 > 76.9 µM
O=C(Cn1cnc2c(cnn2-c2ccc(F)cc2)c1=O)NCc1ccco1 > 76.9 µM
CCOC(=O)C1=C(N)N2C(=O)C(C)SC2=C(C(=O)OC)C1c1ccccc1OC (stereo not drawn) > 76.9 µM
COc1ccccc1-n1c(CNC(=O)c2ccc(S(=O)(=O)N3CCOCC3)cc2)n[nH]c1=S > 76.9 µM
CN(C)C(=O)NCc1ccc(S(N)(=O)=O)cc1 > 76.9 µM
CCCNC(=O)c1c(N)n(-c2cccc(OC)c2)c2nc3ccccc3nc12 > 76.9 µM
COc1ccc(CN/C=C2\CCCCC2=O)cc1 > 76.9 µM
O=C1CC(C(=O)NC2CCCCC2)C(c2ccccc2)O1 (stereo not drawn) > 76.9 µM
O=C(Nn1c(C2CCC2)nc2ccccc2c1=O)C1CCC1 > 76.9 µM
O=C(O)C1CC(c2cccc(Br)c2)=NO1 (stereo not drawn) > 76.9 µM
CCCOc1ccccc1C1CC(=O)Nc2cc3c(cc21)OCCO3 (stereo not drawn) > 76.9 µM
CC(O)CCC(=O)NCCNC(=O)CCC(C)O (stereo not drawn) > 76.9 µM
CCCn1c(SCc2cc(=O)oc3ccc4ccccc4c23)n[nH]c1=O > 76.9 µM
CCOc1cc2c(C#N)c(N3CCOCC3)nc(N)c2c(N)n1 > 76.9 µM

Potency, active:
Cc1ccc2c(COn3nnc4ccc(S(=O)(=O)N(C)C)cc43)cc(=O)oc2c1C 10.6 µM
COCc1nnc(NC(=O)c2ccc(NC(C)=O)cc2)s1 6.81 µM
